# Test results as given in PMC5892938.
# Some of the results follow. At the low end of the ranking, values are background and their order means little.
# Target: GST-SBP-SLBP (stem-loop binding protein) (UniProt Q14493)
# Experiment: targeted RNA Bind-n-Seq;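 note: DESeq read counts versus GST-SBP nonspecific binding control pulldown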
# Settings: RBNS binding buffer: 25 mM Tris pH 7.5, 150 mM KCl, 3 mM MgCl2, 0.1% Tween, 0.5 mg/mL BSA, 1 mM DTT; 27 nM protein, 750 pM RNA pool; temperature not stated; high values mean tight binding
row,Sequence,binding signal (log2 fold change)
1,GGUCACGUCUCAAUCAACUCUUCUCCCAGGGAAAACCCUGGUUUACUCAACAGCUCGCAGUCAAG,0.182
2,GGUCACGUCUCAAUCAACUCUAUCUCAGGAGUUUACUCCUGUAAAUUCAACAGCUCGCAGUCAAG,-0.0972
3,GGUCACGUCUCAAUCAACUCAAUUCCAGGAGUUUUCUCCUGUUUUCUCAACAGCUCGCAGUCAAG,-0.00904
4,GGUCACGUCUCAAUCAACUCAACUUCCAGGGAAAGCCCUGGUUUACUCAACAGCUCGCAGUCAAG,0.296
5,GGUCACGUCUCAAUCAACUCAAAAGAGGGGGGGAAAACCCCUUUGCCCUCACUAUCAACAGCUCGCAGUCAAG,0.00436
6,GGUCACGUCUCAAUCAACUCAGUUUCAGGAGUUUACUCCUGUAUUUUCAACAGCUCGCAGUCAAG,-0.0334
7,GGUCACGUCUCAAUCAACUCUAUCUCCAGGGAAAACCCUGGUUUUCUCAACAGCUCGCAGUCAAG,0.295
8,GGUCACGUCUCAAUCAACUCAUUCUCCAGGGAAACCCCUGGUAUUCUCAACAGCUCGCAGUCAAG,0.127
9,GGUCACGUCUCAAUCAACUCAUUCCCCAGGGAAAACCCUGGCAUUUUCAACAGCUCGCAGUCAAG,-0.104
10,GGUCACGUCUCAAUCAACUCACAAGAGGGGGGGAAAACCCCUUUGCCCUCACAUUCAACAGCUCGCAGUCAAG,0.0955
11,GGUCACGUCUCAAUCAACUCUUCGUCCAGGGAAAACCCUGGCAAAUUCAACAGCUCGCAGUCAAG,0.0797
12,GGUCACGUCUCAAUCAACUCUUCCCCCAGGGAAACCCCUGGCUAAUUCAACAGCUCGCAGUCAAG,0.313
13,GGUCACGUCUCAAUCAACUCAAGUCCAGGAGUUUCCUCCUGCUAUUUCAACAGCUCGCAGUCAAG,0.255
14,GGUCACGUCUCAAUCAACUCUUCUUCCAGGGAAACCCCUGGCUAUGUCAACAGCUCGCAGUCAAG,-0.201
15,GGUCACGUCUCAAUCAACUCAUUUUCAGGAGUUUGCUCCUGCUUAUUCAACAGCUCGCAGUCAAG,0.0844
16,GGUCACGUCUCAAUCAACUCUUCCCCCAGGGAAACCCCUGGCAAUCUCAACAGCUCGCAGUCAAG,0.108
17,GGUCACGUCUCAAUCAACUCAUUCCCCAGGGAAAUCCCUGGUAUACUCAACAGCUCGCAGUCAAG,0.0434
18,GGUCACGUCUCAAUCAACUCUCUCGAGGGGGGGAAAACCCCUUUGCCCUCAUAAUCAACAGCUCGCAGUCAAG,-0.27
19,GGUCACGUCUCAAUCAACUCAAUUCCCAGGGAAAGCCCUGGCUUAUUCAACAGCUCGCAGUCAAG,0.218
20,GGUCACGUCUCAAUCAACUCUAUCCCCAGGGAAAACCCUGGCUAUUUCAACAGCUCGCAGUCAAG,-0.00107
21,GGUCACGUCUCAAUCAACUCCAUAGAGGGGGGGAAAACCCCUUUACCCUCCAUCUCAACAGCUCGCAGUCAAG,-0.232
